The source of these data is the supplement of paper PMC3334620.

In all, about 33,000 sequences were measured (“E-score (-0.5 to 0.5)”: median about -0.012, highest 2% from about 0.29 on). The list shows a part of the results.

This experiment addresses T1, Ybr033w (UniProt P38073).
T1 sequence: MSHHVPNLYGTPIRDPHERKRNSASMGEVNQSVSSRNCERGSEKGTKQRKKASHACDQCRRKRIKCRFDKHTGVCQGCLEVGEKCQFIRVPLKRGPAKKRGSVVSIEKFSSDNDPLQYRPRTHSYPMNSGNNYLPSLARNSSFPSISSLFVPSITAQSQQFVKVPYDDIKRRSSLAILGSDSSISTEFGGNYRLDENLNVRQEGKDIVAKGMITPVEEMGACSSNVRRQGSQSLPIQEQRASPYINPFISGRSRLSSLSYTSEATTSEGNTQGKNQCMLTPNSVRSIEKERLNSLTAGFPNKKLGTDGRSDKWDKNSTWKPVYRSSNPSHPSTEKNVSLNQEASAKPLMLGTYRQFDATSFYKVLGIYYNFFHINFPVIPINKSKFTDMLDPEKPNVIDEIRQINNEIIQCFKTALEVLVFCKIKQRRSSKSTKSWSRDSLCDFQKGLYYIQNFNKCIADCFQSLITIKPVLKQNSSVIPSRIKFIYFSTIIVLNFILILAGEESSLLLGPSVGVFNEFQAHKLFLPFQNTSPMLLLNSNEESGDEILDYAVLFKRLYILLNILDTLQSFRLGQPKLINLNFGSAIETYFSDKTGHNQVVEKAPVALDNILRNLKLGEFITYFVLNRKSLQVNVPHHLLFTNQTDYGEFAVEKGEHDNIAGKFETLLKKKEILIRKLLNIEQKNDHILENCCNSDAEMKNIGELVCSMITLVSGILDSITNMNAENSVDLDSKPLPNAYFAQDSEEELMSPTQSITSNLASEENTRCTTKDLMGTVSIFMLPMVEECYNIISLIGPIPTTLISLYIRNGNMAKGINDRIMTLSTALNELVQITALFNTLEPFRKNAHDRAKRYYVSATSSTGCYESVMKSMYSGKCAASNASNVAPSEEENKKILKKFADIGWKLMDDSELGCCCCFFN
Put plainly: PBM E-score (8-mer binding enrichment) (E-score (-0.5 to 0.5)); higher = stronger / more preferred TF binding; most listed sequences are background and not binding sites. Particulars: protein concentration: 200 nM; construct: GST-full length. The gist of the method: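 Universal all-10-mer Agilent arrays, double-stranded by primer extension on fresh or once-stripped slides, were probed with about 100-200 nM GST-tagged yeast transcription factors made by PURExpress. Fluorescent anti-GST detected bound protein, and masliner normalised the scans. E-scores from the Universal PBM Analysis Suite were given to each ungapped eight-base word pooled with its reverse complement.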
For the sequence GTATACGA, the “PBM E-score” value was 0.0267.

For AATGAACA, the “PBM E-score” value worked out at 0.214.

In the case of CATCCGGG, the “PBM E-score” value is -0.0657.

As to TTAAACAA, the “PBM E-score” value was 0.226.

For the sequence CAAAAGGC, the “PBM E-score” value turned out to be 0.0553.

Take GGCACGCC: the “PBM E-score” value was -0.414.

In the case of CATTTTCC, the “PBM E-score” value was found to be 0.223.

For ACCACAGG, the “PBM E-score” value was -0.164.

ATCCCGCC: the “PBM E-score” value was -0.206.

For ATCTCACG, the “PBM E-score” value was -0.168.

Take ATCCTTAG: the “PBM E-score” value is -0.0191.

On to AGATAGAT, for which the “PBM E-score” value came to 0.0433.

Consider GGCTATAA, for which the “PBM E-score” value came out at 0.00013.

Turning to GCAACAGA, the “PBM E-score” value stood at 0.101.

AACCTCAT: the “PBM E-score” value came to 0.121.

For ATGAATGG, the “PBM E-score” value was found to be 0.0346.

Take AGGCTCAA: the “PBM E-score” value was -0.158.

Turning to ACGCGTAA, the “PBM E-score” value was -0.0148.

On to CGCAATTC, for which the “PBM E-score” value was determined as 0.0805.

In the case of CAAAGCGC, the “PBM E-score” value was -0.067.

With CGGACCAG, the “PBM E-score” value was -0.0706.

Regarding ACACGGCG, the “PBM E-score” value came out at 0.0146.

For the sequence ACCCGGAT, the “PBM E-score” value was -0.0735.

As for CACCACTA, the “PBM E-score” value was 0.0777.

Consider GTAGATAC, for which the “PBM E-score” value was 0.116.

In the case of CAGGACCC, the “PBM E-score” value is -0.213.

Take CGCAGTGA: the “PBM E-score” value was -0.033.

On to ATTGTAAC, for which the “PBM E-score” value worked out at 0.216.

Take ACATGACG: the “PBM E-score” value is -0.0838.

On to CCACGAAC, for which the “PBM E-score” value came out at 0.0234.

For GCAGGTCC, the “PBM E-score” value is -0.00694.

Take CCAGGACG: the “PBM E-score” value was -0.233.

Take CTTAGTTC: the “PBM E-score” value came out at 0.00673.

Regarding ACCGTTCT, the “PBM E-score” value is -0.0931.

For the sequence GAATCTAC, the “PBM E-score” value stood at 0.131.

With GAGTGCAA, the “PBM E-score” value came to 0.0873.

For the sequence AAGACGGC, the “PBM E-score” value was -0.176.

As to TCAAAGGA, the “PBM E-score” value is -0.0278.

Regarding ATGTTATG, the “PBM E-score” value is 0.234.

As to ACCACAGT, the “PBM E-score” value is 0.0969.

Turning to CGCAATGC, the “PBM E-score” value is -0.247.

Consider AAGCTGAG, for which the “PBM E-score” value was -0.118.

For CCAGACTC, the “PBM E-score” value is -0.132.

Regarding TATAGTCA, the “PBM E-score” value amounted to 0.214.

With GTATGGTA, the “PBM E-score” value came out at 0.145.

As to CTAAGAGA, the “PBM E-score” value was -0.0123.

As for CCCCTAGG, the “PBM E-score” value is -0.286.

As to CGAGAACC, the “PBM E-score” value is -0.00458.

GACAGTAC: the “PBM E-score” value was -0.0498.

For the sequence GAGAGCAC, the “PBM E-score” value is -0.136.

Consider AGATCGCG, for which the “PBM E-score” value is -0.0557.

As for GCAGAAAC, the “PBM E-score” value stood at 0.172.

For AAGTTACG, the “PBM E-score” value worked out at 0.168.

For the sequence ACTAAAAG, the “PBM E-score” value is 0.0382.

Take GACACGCA: the “PBM E-score” value worked out at 0.0219.

Take GCTAGATA: the “PBM E-score” value was -0.00395.

For the sequence AGGCAAGC, the “PBM E-score” value was -0.172.

As to ATATACTG, the “PBM E-score” value came to 0.255.

For the sequence ATTTTTTC, the “PBM E-score” value came to 0.316.

As for CATGATAC, the “PBM E-score” value was found to be 0.125.

CTGGCTGC: the “PBM E-score” value was -0.104.

In the case of CGTCCCTA, the “PBM E-score” value is -0.0874.

For CGAGATTC, the “PBM E-score” value is 0.0885.

Take CCTGGTCG: the “PBM E-score” value is -0.159.

With CCAAGTAG, the “PBM E-score” value is -0.102.

Regarding GAGACCCC, the “PBM E-score” value was -0.134.

In the case of ATTTCCTG, the “PBM E-score” value stood at 0.3.

For the sequence GGACAGCA, the “PBM E-score” value was -0.123.

As to CTTTTGCC, the “PBM E-score” value stood at 0.14.

Turning to CGAATGAA, the “PBM E-score” value worked out at 0.0893.

Consider ACTGCTAG, for which the “PBM E-score” value was -0.0711.

On to AGGGGGGG, for which the “PBM E-score” value was -0.427.

On to AGACTTTG, for which the “PBM E-score” value was -0.0453.

CCAAGGAA: the “PBM E-score” value worked out at 0.0112.

For AATTTTGA, the “PBM E-score” value came out at 0.216.

Consider GATCAGTA, for which the “PBM E-score” value turned out to be 0.107.

As for AAAGTGTC, the “PBM E-score” value stood at 0.0495.

ACTATGGA: the “PBM E-score” value was -0.172.

Regarding GATAAAAA, the “PBM E-score” value stood at 0.278.

As for CCCGTCGA, the “PBM E-score” value was -0.192.

Regarding AGAGCTTG, the “PBM E-score” value was -0.0892.

Take AGCCCGTA: the “PBM E-score” value is -0.224.

As for ACGAAGAA, the “PBM E-score” value was found to be 0.2.

In the case of ATTCACAG, the “PBM E-score” value stood at 0.0908.

Regarding ATGAGAGG, the “PBM E-score” value is -0.258.

As to GCCACTCC, the “PBM E-score” value was -0.107.

AACGTTTA: the “PBM E-score” value was found to be 0.0786.

With GTACGATA, the “PBM E-score” value turned out to be 0.0341.

For ACGCCGGA, the “PBM E-score” value was -0.173.

Consider ACGGAATA, for which the “PBM E-score” value amounted to 0.351.

As to AAACACCC, the “PBM E-score” value was 0.0312.

As to CCCGTCGC, the “PBM E-score” value was -0.229.

Turning to CAAAATTA, the “PBM E-score” value amounted to 0.182.

CTGCTTCA: the “PBM E-score” value was -0.221.
